{"source": "PubChem BioAssay AID995", "about": "(National Center for Advancing Translational Sciences (NCATS), 2007)", "note": "Among all 72,000 compounds or so, about 710 (0.99%) were called active. Inconclusive results, whose numbers are uncertain, are shown with a selection of clear calls. The call rests on the fitted dose curve; in most records, active means well fitted inhibition curve with a large enough effect; inconclusive means small, poorly fitted or top-dose-only effect; inactive means no such curve, though single readings can be large or run the other way. No potency is given beside an inconclusive call; the fits are too rough. On the % scale 0 is the no-effect control and ±100 the full control effect; potency means the concentration at half of the fitted maximal effect; tags describe the fitted curve by direction and shape."}
{"assay": "qHTS Assay for Inhibitors of the ERK Signaling Pathway using a Homogeneous Screening Assay; further: nearly all actives have a fitted effect of over 55% in size", "conditions": "HEK293-V1b, vasopressin-stimulated pERK AlphaScreen; activity, negative = inhibition: at 57.5 µM (top of the series) unless noted", "procedure,_shortened": "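Overnight-seeded V1b-HEK293 cells in 1% FBS got compound, then vasopressin (25 nM final, 5 min, 37C), then lysis buffer. AlphaScreen detection of phospho-ERK; activity normalized to basal and full-stimulation controls.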"}
{"smiles": "COc1cccc(C(=O)Nc2ccc3nc(N4CCN(c5ncccn5)CC4)cc(C)c3c2)c1OC", "activity, negative = inhibition": "inactive: -12%"}
{"smiles": "N#Cc1nc(-c2ccc(OCc3ccccc3)cc2)oc1NCCN1CCOCC1", "Potency": "inconclusive [inhibitor, single point]"}
{"smiles": "O=C(O)CCC(C(=O)O)n1c(O)c(C2=c3ccccc3=NC2=O)sc1=S", "note": "(stereo not given)", "Potency": "inconclusive [inhibitor, partial curve, poor fit]"}
{"smiles": "CN1CCN(S(=O)(=O)c2ccc(N3CCN(S(=O)(=O)/C=C/c4ccccc4)CC3)nc2)CC1", "activity, negative = inhibition": "inactive: 16.6%"}
{"smiles": "C=CCn1c(SCC(=O)NC2CCCC2)nc2scc(-c3ccco3)c2c1=O", "activity, negative = inhibition": "inactive: 1.68%"}
{"smiles": "Cc1cc(-c2ccc(N=Nc3cc(S(=O)(=O)O)c4ccccc4c3N)c(C)c2)ccc1N=Nc1cc(S(=O)(=O)O)c2ccccc2c1N", "Potency": "inconclusive [inhibitor, partial curve]"}
{"smiles": "COc1cc2c(C)nc3onc(-c4ccccc4)c3c2cc1OC", "activity, negative = inhibition": "inactive: -26.9%"}
{"smiles": "COn1c(SCC(=O)N(C)C)nc2ccccc2c1=O", "Potency": "inconclusive [inhibitor, partial curve]"}
{"smiles": "O=C(O)[C@H](Cc1cc(I)c(O)c(I)c1)C1CCCCC1", "activity, negative = inhibition": "inactive: -18.9% [at 11.5 µM]"}
{"smiles": "Cc1ccc(OCc2nc(C#N)c(NCc3ccc4c(c3)OCO4)o2)cc1", "Potency": "inconclusive [inhibitor, partial curve]"}
{"smiles": "O=C(O)Cc1cccnc1", "activity, negative = inhibition": "inactive: -10.4% [at 11.5 µM]"}
{"smiles": "CSc1nc2ccc(Nc3nc(N4CCOCC4)nc(N4CCOCC4)n3)cc2s1", "Potency": "inconclusive [inhibitor, partial curve]"}
{"smiles": "CCCCn1c(SCC(=O)N(CC)C2CCS(=O)(=O)C2)nnc1C(CC)N(C)C", "note": "(stereo not given)", "Potency": "inconclusive [inhibitor, partial curve]"}
{"smiles": "Cn1c(=O)c2ccccc2n(Cc2ccccc2F)c1=O", "Potency": "inconclusive [inhibitor, partial curve]"}
{"smiles": "CCOc1cc(-c2c(C)c(C)nc(N)c2C#N)ccc1O", "Potency": "inconclusive [inhibitor, partial curve, poor fit]"}
{"smiles": "CCCN(Cc1cc2cc(C)ccc2[nH]c1=O)S(C)(=O)=O", "activity, negative = inhibition": "inactive: -17.3%"}
{"smiles": "COc1ccc(-c2oc3ncnc(NCCN4CCOCC4)c3c2-c2ccc(OC)cc2)cc1", "activity, negative = inhibition": "inactive: 3.49%"}
{"smiles": "CCOC(=O)Cc1csc(NC(=O)CSc2nnc(-n3nc(C)cc3C)c3ccccc23)n1", "Potency": "inconclusive [inhibitor, single point]"}
{"smiles": "Cc1nc2cnc(Oc3cccc(Cl)c3)nc2n(C2CC2)c1=O", "Potency": "inconclusive [inhibitor, single point]"}
{"smiles": "O=C(/C=C/c1ccccc1)c1ccc(O)cc1O", "Potency": "inconclusive [inhibitor, single point]"}
{"smiles": "O=S(=O)(Nc1ccc(Cc2ccncc2)cc1)N1CCCC1", "Potency": "inconclusive [inhibitor, full curve, poor fit]"}
{"smiles": "COc1ccc(COC(=O)N/N=C2/C[C@@H](O)[C@@H](O)[C@@H]3[C@H]4C(=O)N(c5ccc(F)cc5F)C(=O)[C@@H]4CC[C@@H]23)cc1", "activity, negative = inhibition": "inactive: 6.82% [at 11.5 µM]"}
{"smiles": "CCc1ccc(C2=Nn3c(nnc3-c3cccs3)SC2)cc1", "Potency": "inconclusive [inhibitor, single point]"}
{"smiles": "Cc1ccc(N(CC(=O)Nc2ccc3c(c2)OCCO3)S(=O)(=O)c2c(C)noc2C)cc1", "activity, negative = inhibition": "inactive: 11.5%"}
{"smiles": "COc1cc(OC)cc(C(=O)N(Cc2nc(-c3cccc(C)c3)no2)C(C)C)c1", "activity, negative = inhibition": "inactive: 6.31%"}
{"smiles": "c1ccc(Nc2nc(-c3ccncc3)cs2)nc1", "Potency": "inconclusive [inhibitor, partial curve]"}
{"smiles": "COc1cc2[nH]c(=O)n(CCC(=O)NCc3cccnc3)c(=O)c2cc1OC", "activity, negative = inhibition": "inactive: -22.9%"}
{"smiles": "N#CC1=C(C2CC2)CC(c2ccccc2)C(C#N)=C1N", "note": "(stereo not given)", "Potency": "inconclusive [inhibitor, single point]"}
{"smiles": "COCCn1c(C)cc(C(=O)COC(=O)c2c(C)nn(Cc3ccccc3)c2C)c1C", "Potency": "inconclusive [inhibitor, partial curve]"}
{"smiles": "Cc1ccc(-n2c(SCC(=O)Nc3ccc4cn[nH]c4c3)nnc2-c2ccco2)cc1", "Potency": "inconclusive [inhibitor, partial curve]"}
{"smiles": "Cc1ccccc1-c1nc(NCCN2CCOCC2)c2ccccc2n1", "activity, negative = inhibition": "inactive: 7.68%"}
{"smiles": "COc1cc(C2c3c(oc4ccccc4c3=O)C(=O)N2c2ccc(C)cn2)ccc1O", "note": "(stereo not given)", "Potency": "inconclusive [inhibitor, single point]"}
{"smiles": "O=C(CCCc1ccc(-c2ccccc2F)cc1)Nc1ccc(O)cc1", "activity, negative = inhibition": "inactive: -12.7%"}
{"smiles": "CCNc1nc(C)c2cc(Br)c(=O)n(CC)c2n1", "Potency": "inconclusive [inhibitor, full curve]"}
{"smiles": "Cc1cc(C(=O)CSc2nc3ccccc3[nH]2)c(C)n1C", "Potency": "inconclusive [inhibitor, partial curve]"}
{"smiles": "O=C(O)c1[nH]c2ccccc2c1NS(=O)(=O)Cc1ccccc1", "activity, negative = inhibition": "inactive: -17.7%"}
{"smiles": "CCOC(=O)c1sc(N(Cc2ccccc2)C(=O)CSc2nnc(C3CC3)n2N)nc1C", "Potency": "inconclusive [inhibitor, partial curve]"}
{"smiles": "Cc1cccc(Br)c1", "Potency": "inconclusive [inhibitor, single point]"}
{"smiles": "Cc1ccc(OCC(O)Cn2c(=N)n(CCN3CCOCC3)c3ccccc32)cc1", "note": "(stereo not given)", "Potency": "inconclusive [inhibitor, single point]"}
{"smiles": "C#C[C@]1(O)CC[C@H]2[C@H]3CCC4=Cc5oncc5C[C@]4(C)[C@@H]3CC[C@]21C", "Potency": "inconclusive [inhibitor, single point]"}
{"smiles": "Cc1cc(-c2ccc(Cl)cc2)n2nc(N)nc2n1", "Potency": "inconclusive [inhibitor, single point]"}
{"smiles": "COc1cc(NC(=O)c2cc3c(C)nc4ccccc4c3o2)cc(OC)c1OC", "Potency": "inconclusive [inhibitor, full curve]"}
{"smiles": "CCN(CC)S(=O)(=O)c1cc(C(=O)OCC(=O)c2ccc3c(c2)NC(=O)CO3)ccc1F", "Potency": "active: 31.6 µM"}
{"smiles": "CCOc1ccc(-c2cc(C(=O)NCCCN3CCN(CC)CC3)c3ccccc3n2)cc1", "activity, negative = inhibition": "inactive: -10.2%"}
{"smiles": "CC(C)c1nc2oc3c(NCC4CCCO4)ncnc3c2c2c1CCC2", "note": "(stereo not given)", "Potency": "inconclusive [inhibitor, partial curve]"}
{"smiles": "Cc1nc2cnc(Oc3ccccc3)nc2n(C2CC2)c1=O", "activity, negative = inhibition": "inactive: 2.18%"}
{"smiles": "N#Cc1nc(COc2ccc(F)cc2)oc1N1CCN(Cc2ccccc2)CC1", "activity, negative = inhibition": "inactive: -10.4%"}
{"smiles": "Cc1ccccc1Nc1nc(N)nc(CN2C(=O)NC3(CCCCC3C)C2=O)n1", "note": "(stereo not given)", "Potency": "inconclusive [inhibitor, single point]"}
{"smiles": "CCCNC(=O)N1N=C(c2ccc(N)cc2)c2cc3c(cc2[C@H]1C)OCO3", "Potency": "inconclusive [inhibitor, partial curve]"}
{"smiles": "CSCC[C@@H]1NC(=O)C/C=C\\[C@@H](C)COC(=O)[C@H](C)COC1=O", "activity, negative = inhibition": "inactive: 4.73% [at 11.5 µM]"}
{"smiles": "CC[N+]1(C)[C@@H]2CC[C@H]1CC(OC(=O)[C@H]1CC[C@@](C(=O)OC3C[C@H]4CC[C@@H](C3)[N+]4(C)CC)(c3ccccc3)c3ccccc31)C2", "note": "(stereo not given in full)", "activity, negative = inhibition": "inactive: 14.4% [at 25.7 µM]"}
{"smiles": "Cc1ccc(C(=O)CSc2nnc(COc3cccc4cccnc34)o2)cc1", "Potency": "inconclusive [inhibitor, single point]"}
{"smiles": "Cc1cccc(CNc2ncnc3ccc(-c4c(C)noc4C)cc23)c1", "Potency": "inconclusive [inhibitor, single point]"}
{"smiles": "COc1ccc2ccccc2c1C(O)c1nccn1C", "note": "(stereo not given)", "Potency": "inconclusive [inhibitor, partial curve]"}
{"smiles": "Cc1ccc(-c2csc3ncnc(Sc4nnc(CN5CCCCCC5=O)o4)c23)cc1", "activity, negative = inhibition": "inactive: 7.91%"}
{"smiles": "CC(C)(C)n1ncc2c(=O)n(Cc3c(F)cccc3Cl)cnc21", "Potency": "inconclusive [inhibitor, single point]"}
{"smiles": "CC(=O)N1CCN(c2ccc(Nc3nc(C)nc4c3oc3ccccc34)cc2)CC1", "Potency": "active: 10 µM"}
{"smiles": "O=C(CSc1nc2ccccc2o1)NCc1ccco1", "Potency": "inconclusive [inhibitor, partial curve]"}
{"smiles": "O=C(Nc1nc2ccccc2n1CCOc1ccccc1)c1ccco1", "Potency": "inconclusive [inhibitor, partial curve, poor fit]"}
{"smiles": "CC(=O)Nc1nc(-c2cccs2)cs1", "Potency": "inconclusive [inhibitor, partial curve]"}
{"smiles": "CC[C@H](C)N(C)C(=O)c1cc2ccccc2c(-c2ccccc2Cl)n1", "activity, negative = inhibition": "inactive: -14.9%"}
{"smiles": "Nc1c(S(=O)(=O)O)cc(Nc2cccc(S(N)(=O)=O)c2)c2c1C(=O)c1ccccc1C2=O", "Potency": "inconclusive [inhibitor, single point]"}
{"smiles": "CN(Cc1ccco1)c1cc(-c2cccnc2)ncn1", "Potency": "inconclusive [inhibitor, partial curve]"}
{"smiles": "O=C(CN(Cc1ccco1)C(=O)CNS(=O)(=O)c1ccccc1)NCc1ccccc1", "activity, negative = inhibition": "inactive: 3.64%"}
{"smiles": "CCCCC1=NC2(CCCC2)C(=O)N1Cc1ccc(-c2ccccc2-c2nn[nH]n2)cc1", "activity, negative = inhibition": "inactive: -3.3%"}
{"smiles": "COc1ccc(-c2coc3cc(O)cc(O)c3c2=O)cc1", "Potency": "active: 15.8 µM"}
{"smiles": "CC(C)Oc1cccc(C(=O)Nc2ccccc2N2CCOCC2)c1", "activity, negative = inhibition": "inactive: -9.7%"}
{"smiles": "CC(O)CCc1nc2ccc(C(=O)O)cc2[nH]1", "note": "(stereo not given)", "Potency": "inconclusive [inhibitor, partial curve]"}
{"smiles": "CCn1c(CSc2nc3ccccc3[nH]2)n[nH]c1=S", "activity, negative = inhibition": "inconclusive: -34.5% [inhibitor]"}
{"smiles": "CCc1ccc2[nH]c(=O)c(CN(CCN3CCOCC3)C(=O)Nc3ccccc3F)cc2c1", "Potency": "inconclusive [inhibitor, single point]"}
